# From the supplement of paper PMC8728848
# This is one part of the list.
# B1: CAA (Caragana arborescens) (protein)
# chain: VAVEFDTFDNPDWDPRTKHIGIDVNSIRSNKTTQWGFWNRQVADVDISYEASSKTLNVSLYYPGESYIVTDVVDLKDILPEWVRIGF
# Legend:
# Assay in all cases: glycan array binding signal (z-score within array); higher = stronger binding
# Conditions in all cases: glycan notation: IUPAC condensed, linker removed
# [1] = molecular target: Fuc(a1-2)Gal(b1-4)GlcNAc(b1-3)Gal(b1-4)GlcNAc(b1-2)Man(a1-3)[Fuc(a1-2)Gal(b1-4)GlcNAc(b1-3)Gal(b1-4)GlcNAc(b1-2)Man(a1-6)]Man(b1-4)GlcNAc(b1-4)GlcNAc
# In short: (§1)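 Arrays were curated from the Consortium for Functional Glycomics database, 3228 in total, and kept only where the protein sequence was available. Binding is expressed as a within-array Z-score. This score was averaged across arrays of the same protein sequence at different concentrations or buffers and across linkers, and negative values can be read as non-binding.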
# [2] = molecular target: Fuc(a1-2)Gal(b1-4)GlcNAc(b1-3)Gal(b1-4)GlcNAc(b1-3)Gal(b1-4)GlcNAc
# In short: as §1
# [3] = molecular target: Fuc(a1-2)Gal(b1-4)GlcNAc(b1-3)GalNAc
# In short: as §1
# [4] = molecular target: Fuc(a1-2)Gal(b1-4)GlcNAc(b1-3)[Fuc(a1-2)Gal(b1-4)GlcNAc(b1-6)]GalNAc
# In short: as §1
# [5] = molecular target: Fuc(a1-2)Gal(b1-4)GlcNAc(b1-3)[Fuc(a1-3)[Gal(b1-4)]GlcNAc(b1-6)]Gal(b1-4)Glc
# In short: as §1
# [6] = molecular target: Fuc(a1-2)Gal(b1-4)GlcNAc(b1-6)GalNAc
# In short: as §1
# [7] = molecular target: Fuc(a1-2)Gal(b1-4)GlcNAc6S
# In short: as §1
# [8] = molecular target: Fuc(a1-2)Gal(b1-4)[Fuc(a1-3)]GlcNAc
# In short: as §1
# [9] = molecular target: Fuc(a1-2)Gal(b1-4)[Fuc(a1-3)]GlcNAc(b1-2)Man(a1-3)[Fuc(a1-2)Gal(b1-4)[Fuc(a1-3)]GlcNAc(b1-2)Man(a1-6)]Man(b1-4)GlcNAc(b1-4)[Fuc(a1-6)]GlcNAc
# In short: as §1
# [10] = molecular target: Fuc(a1-2)Gal(b1-4)[Fuc(a1-3)]GlcNAc(b1-2)[Fuc(a1-2)Gal(b1-4)[Fuc(a1-3)]GlcNAc(b1-4)]Man(a1-3)[Fuc(a1-2)Gal(b1-4)[Fuc(a1-3)]GlcNAc(b1-2)Man(a1-6)]Man(b1-4)GlcNAc(b1-4)GlcNAc
# In short: as §1
# [11] = molecular target: Fuc(a1-2)Gal(b1-4)[Fuc(a1-3)]GlcNAc(b1-3)Gal(b1-4)[Fuc(a1-3)]GlcNAc
# In short: as §1
# [12] = molecular target: Fuc(a1-2)Gal(b1-4)[Fuc(a1-3)]GlcNAc(b1-3)Gal(b1-4)[Fuc(a1-3)]GlcNAc(b1-3)Gal(b1-4)[Fuc(a1-3)]GlcNAc
# In short: as §1
# [13] = molecular target: Fuc(a1-2)Gal(b1-4)[Fuc(a1-3)]GlcNAc(b1-3)GalNAc
# In short: as §1
# [14] = molecular target: Fuc(a1-2)Gal(b1-4)[Fuc(a1-3)]GlcNAc(b1-3)[Neu5Ac(a2-6)Gal(b1-4)GlcNAc(b1-6)]Gal(b1-4)Glc
# In short: as §1
# [15] = molecular target: Fuc(a1-2)Gal3S(b1-4)GlcNAc
# In short: as §1
# [16] = molecular target: Fuc(a1-2)Gal6S(b1-3)GlcNAc
# In short: as §1
# [17] = molecular target: Fuc(a1-2)Gal6S(b1-3)GlcNAc6S
# In short: as §1
# [18] = molecular target: Fuc(a1-2)Gal6S(b1-4)Glc
# In short: as §1
# [19] = molecular target: Fuc(a1-2)Gal6S(b1-4)Glc6S
# In short: as §1
# [20] = molecular target: Fuc(a1-2)[Gal(a1-3)]Gal
# In short: as §1
# [21] = molecular target: Fuc(a1-2)[Gal(a1-3)]Gal(b1-3)GalNAc
# In short: as §1
# [22] = molecular target: Fuc(a1-2)[Gal(a1-3)]Gal(b1-3)GalNAc(b1-3)Gal(a1-4)Gal(b1-4)Glc
# In short: as §1
# [23] = molecular target: Fuc(a1-2)[Gal(a1-3)]Gal(b1-3)GlcNAc
# In short: as §1
# [24] = molecular target: Fuc(a1-2)[Gal(a1-3)]Gal(b1-3)GlcNAc(b1-2)Man(a1-3)[Fuc(a1-2)[Gal(a1-3)]Gal(b1-3)GlcNAc(b1-2)Man(a1-6)]Man(b1-4)GlcNAc(b1-4)GlcNAc
# In short: as §1
# [25] = molecular target: Fuc(a1-2)[Gal(a1-3)]Gal(b1-3)GlcNAc(b1-2)Man(a1-3)[Fuc(a1-2)[Gal(a1-3)]Gal(b1-3)GlcNAc(b1-2)Man(a1-6)]Man(b1-4)GlcNAc(b1-4)[Fuc(a1-6)]GlcNAc
# In short: as §1
# [26] = molecular target: Fuc(a1-2)[Gal(a1-3)]Gal(b1-3)GlcNAc(b1-3)GalNAc
# In short: as §1
# [27] = molecular target: Fuc(a1-2)[Gal(a1-3)]Gal(b1-3)GlcNAc(b1-6)GalNAc
# In short: as §1
# [28] = molecular target: Fuc(a1-2)[Gal(a1-3)]Gal(b1-4)Glc
# In short: as §1
# [29] = molecular target: Fuc(a1-2)[Gal(a1-3)]Gal(b1-4)GlcNAc
# In short: as §1
# [30] = molecular target: Fuc(a1-2)[Gal(a1-3)]Gal(b1-4)GlcNAc(b1-2)Man
# In short: as §1
binder,measurement,setting,value
B1,glycan array binding signal (z-score),[1],-0.227
same,glycan array binding signal (z-score),[2],-0.232
same,glycan array binding signal (z-score),[3],-0.236
same,glycan array binding signal (z-score),[4],-0.245
same,glycan array binding signal (z-score),[5],-0.243
same,glycan array binding signal (z-score),[6],-0.231
same,glycan array binding signal (z-score),[7],-0.219
same,glycan array binding signal (z-score),[8],-0.247
same,glycan array binding signal (z-score),[9],0.278
same,glycan array binding signal (z-score),[10],-0.233
same,glycan array binding signal (z-score),[11],-0.249
same,glycan array binding signal (z-score),[12],-0.242
same,glycan array binding signal (z-score),[13],-0.238
same,glycan array binding signal (z-score),[14],-0.236
same,glycan array binding signal (z-score),[15],-0.244
same,glycan array binding signal (z-score),[16],-0.258
same,glycan array binding signal (z-score),[17],-0.255
same,glycan array binding signal (z-score),[18],-0.238
same,glycan array binding signal (z-score),[19],-0.234
same,glycan array binding signal (z-score),[20],-0.24
same,glycan array binding signal (z-score),[21],-0.248
same,glycan array binding signal (z-score),[22],-0.249
same,glycan array binding signal (z-score),[23],-0.238
same,glycan array binding signal (z-score),[24],3.82
same,glycan array binding signal (z-score),[25],2.14
same,glycan array binding signal (z-score),[26],-0.249
same,glycan array binding signal (z-score),[27],-0.241
same,glycan array binding signal (z-score),[28],-0.236
same,glycan array binding signal (z-score),[29],-0.24
same,glycan array binding signal (z-score),[30],-0.249
